This note sets out measurements from the supplement of paper PMC4723716.

Structures are written as SMILES. ± gives the uncertainty stated by the source. Over roughly 9,900 compounds, “viability index relative to DMSO control” has its median near 1; the lowest 2% begin near 0.85. The list shows a part of the results.

This assay deals with Plasmodium falciparum NF54 stage V gametocytes. The experiment in a line: viability index relative to DMSO control (fraction); higher = less gametocyte killing. The note with it: 2.5 µM, library set: Broad Institute DOS, incubation time: 72 h. In outline: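 P. falciparum NF54 stage V gametocytes (serum-free medium, 0.75% gametocytemia, 1.25% hematocrit) were exposed to compound at 2.5 µM for 72 hr at 37°C under low oxygen, then stained with MitoTracker Red CMXRos and saponin for one to two hours. Red particles of 20–70 µm2 in one field per well were counted, and the viability index is that count scaled to the plate mean of solvent-only wells.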
Consider `COc1ccc(NC(=O)N2C[C@@H]3N[C@H](C2)[C@H]3c2ccc(-c3ccncc3)cc2)cc1`, for which the viability index was 1.14 ± 0.078.

As to `C[C@@H]1CCCCO[C@H](CN(C)C(=O)c2ccncc2)[C@H](C)CN([C@@H](C)CO)C(=O)c2cc(NS(=O)(=O)c3cccs3)ccc2O1`, the viability index is 1.16 ± 0.052. The compound `COCCNC(=O)[C@H]1[C@H](CO)[C@H]2Cn3c(ccc(-c4ccc(F)cc4)c3=O)[C@@H]1N2C(=O)NC(C)C` returned a viability index of 1.02 ± 0.045. Take `C[C@H](CO)N1C[C@H](C)[C@@H](CN(C)Cc2ccc(Cl)c(Cl)c2)Oc2c(NS(=O)(=O)c3ccc(F)cc3)cccc2C1=O`: the viability index turned out to be 1.07 ± 0.068. `C[C@@H]1CN([C@H](C)CO)C(=O)Cc2cc(NC(=O)CCC(F)(F)F)ccc2O[C@H]1CN(C)CC1CC1`: the viability index came out at 0.95 ± 0.11. As to `C[C@@H]1CN([C@H](C)CO)C(=O)Cc2cc(NC(=O)CCN3CCOCC3)ccc2O[C@@H]1CN(C)Cc1ccc(C(=O)O)cc1`, the viability index is 1 ± 0.17.

The compound `COc1ccc2c3c([nH]c2c1)[C@@H](CO)NC[C@]31CN(C1)C(=O)Nc1ccc(F)cc1F` yielded a viability index of 0.99 ± 0.063.

Regarding `CN(C)CC(=O)N[C@@H]1C=C[C@H](CC(=O)NCc2ccc(Cl)cc2)O[C@H]1CO`, the viability index worked out at 1.04 ± 0.045. `COc1ccc(CN2C[C@@H](O)COC[C@@H]3O[C@H](CC(=O)N(C)C)CC[C@H]32)cc1` showed a viability index of 0.964 ± 0.052. Consider `CC(C)CC#Cc1ccc([C@@H]2[C@@H](CO)N3C(=O)CN(C(=O)c4cccc(F)c4)C[C@@H]23)cc1`, for which the viability index was 1.01 ± 0.054.

The compound `C[C@H]1CN([C@@H](C)CO)C(=O)CCCn2cc(nn2)CO[C@@H]1CN(C)C(=O)NC1CCCCC1` registered a viability index of 1.01 ± 0.038. Take `COc1ccc2c3c([C@@H](CO)N(C[C@]33CCN(CC4CCCCC4)CC3)S(C)(=O)=O)n(C)c2c1`: the viability index was determined as 1.07 ± 0.036. As to `COCCNC(=O)C[C@H]1CC[C@@H]2[C@@H](COc3ccc(NC(=O)Nc4cccc(F)c4)cc3C(=O)N2C)O1`, the viability index stood at 1.09 ± 0.12.

Take `C[C@@H](O)C#Cc1ccc([C@H]2[C@H]3CN(CC4CC4)CCCCN3[C@H]2CO)cc1`: the viability index was 1.034 ± 0.0055. The same measure for `CO[C@H]1CN(C)C(=O)c2ccc(NS(=O)(=O)c3c(C)noc3C)cc2OC[C@H](C)NC[C@@H]1C`: 1.08 ± 0.069; for `COc1ccc(NC(=O)N(C)C[C@@H]2OCc3cnnn3CCCC(=O)N([C@@H](C)CO)C[C@@H]2C)c(OC)c1`: 1.02 ± 0.043. In turn, `CC(C)(C)[S@](=O)N1Cc2cc(C(=O)NCCc3ccncc3)nc(-c3cccc(-c4cccc(C#N)c4)c3)c2[C@@H]1CCO` registered a viability index of 1.08 ± 0.081. Compound `Cc1noc(C)c1NC(=O)N1C[C@H](O)COC[C@H]2O[C@@H](CC(=O)N[C@H]3CCN(Cc4ccccc4)C3)CC[C@@H]21` had a viability index of 1.04 ± 0.011. The compound `N#Cc1cccc(-c2ccc([C@@H]3[C@@H]4CN(C(=O)Nc5ccc(C(F)(F)F)cc5)C[C@H]3N4)cc2)c1` gave a viability index of 0.864 ± 0.011.
